Reference: PubChem BioAssay AID493208 (National Center for Advancing Translational Sciences (NCATS), 2011)
In all, about 44,000 compounds went through this assay and about 340 (0.77%) were called active. Another 5% or so got no clear call; they are omitted. Calls come from the whole dose curve; as a rule, active = well fitted inhibition curve with a large enough effect; inconclusive = small, poorly fitted or top-dose-only effect; inactive = flat fitted curve, though single readings scatter. Some of the results follow.

assay: Acumen qHTS Assay for Inhibitors of the mTORC1 Signaling Pathway in MEF (Tsc2-/-, p53-/-) Cells: Sytravon; settings: phospho-rpS6 immunofluorescence/PI, 24 h; series mostly up to 38.3 µM; activity change, negative = inhibition: at the top concentration;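 note: plate controls were DMSO for no effect and rapamycin for full effect; nearly all actives have a fitted effect of over 50% in size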
How it was run: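 Tsc2-/-, p53-/- MEFs (empty-vector stable line) in DMEM + 10% FBS were treated with compounds 24 h at 37 degree Celsius, fixed, and immunostained for phospho-rpS6 (Alexa-488) with propidium iodide counterstain. Laser-scanning cytometry gave % positive cells, normalized against 7.5 nM rapamycin and DMSO.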

Activity change, negative = inhibition, inactive:
CCOC(=O)C1CCCN(c2nc3c(S(=O)(=O)c4ccc(CC)cc4)nnn3c3ccc(Cl)cc23)C1 (stereo unspecified) -9.27%
CCN(C(=O)CCc1nc(-c2ccc(C)cc2)no1)c1cccc(C(F)(F)F)c1 1.56%
CCOC(=O)c1c(C)[nH]c(CCC(=O)Nc2ccccc2C(F)(F)F)c1C -0.936%
CCCS(=O)(=O)N1CC(=O)N(c2cccc(F)c2)C(C)(C(=O)NC2CCCCCC2)C1 (stereo unspecified) 1.05%
COc1ccc(C(=O)Nc2ccc(S(=O)(=O)Nc3cc(C)nc(C)n3)cc2)cc1 -10.7%
O=C(CCS(=O)(=O)c1cc2c(cc1Cl)NC(=O)CO2)NCCc1ccccc1 6.58%
COc1cc(CNc2ccc3[nH]c(=O)[nH]c3c2)ccc1OCc1ccc(F)cc1Cl -12.8%
COC(=O)c1ccc2c(=O)n3nc(Nc4ccc(F)cc4F)sc3nc2c1 -3.91%
COc1ccc(CN2CCc3c(c(=O)n4ncc(C(=O)N5CCN(c6ccccc6F)CC5)c4n3C)C2)cc1 3.52%
Cc1cccc(N2CCN(C(=O)c3nn(C)c4c3CS(=O)(=O)c3ccccc3-4)CC2)c1C 7.95%
CS(=O)(=O)N(Cc1ccccc1)c1ccc(C(=O)Nc2cccc(Cl)c2)cc1 9.76%
COc1ccc(CNC(=O)c2ccc3c(O)c(S(=O)(=O)c4ccccc4)c(=O)[nH]c3c2)cc1 2.09%
COc1ccc(NC(=O)c2c(NC(=O)C(F)(F)F)sc3c2CCCCC3)cc1 -14.6%
CCCCC1CCC(C(=O)N2CC(=O)Nc3ccc(C)cc3C2c2ccc(F)cc2)CC1 (stereo unspecified) 0.713%
COc1ccc(Cn2ccc3nc(C)c(C(=O)N4CCN(c5cccc(OC)c5)CC4)cc3c2=O)cc1 -14.1%
O=C(Nc1cccc(C(F)(F)F)c1)Nc1nnc(N2CCCCCC2)s1 -12.2%
COCCCNC(=O)CN1C(=O)c2cccnc2Sc2ccccc21 -5.09%
CC(=O)c1cccc(NC(=O)CN2C(=O)CCc3cc(S(=O)(=O)N4CCCCC4)ccc32)c1 0%
COc1ccccc1N1CCN(C(=O)c2cc(-c3ccc(C)c(F)c3)on2)CC1 -1.61%
COc1cccc2cc(C(=O)Nc3ccc(CC(=O)O)cc3)c(=O)oc12 -4.57%
CCOc1ccc(S(=O)(=O)N2Cc3ccccc3CC2C(=O)Nc2ccc(NC(C)=O)cc2)cc1 (stereo unspecified) 1.95%
CCCCN1CC(c2nc3ccccc3n2CCCCOc2cc(C)cc(C)c2)CC1=O (stereo unspecified) 2.57%
COc1ccc(-c2cc(C(=O)Nc3sc4c(c3C(N)=O)CCCC4)no2)cc1 -2.53%
CCN(CC)CCNC(=O)C(=O)Nc1c2c(nn1-c1ccc(F)cc1)CSC2 1.46%
Cc1c(C(=O)OCCOc2ccccc2)[nH]c2c1C(=O)CC(c1ccc(C(C)(C)C)cc1)C2 (stereo unspecified) -3.99%
CCn1c2c(c(=O)n3ncc(C(=O)Nc4cc(Cl)ccc4OC)c13)CN(Cc1ccc(OC)cc1)CC2 -0.0481%
O=C(NCc1ccc(Cl)cc1)C1CCN(c2nn3cc(-c4ccc(F)cc4)nc3s2)CC1 7.3%
CCCNC(=O)CCC(=O)N1Cc2cccc(OC)c2Oc2ncccc21 -0.394%
CC1CN(C(=O)NCc2ccccc2)c2cc(Cl)ccc2O1 (stereo unspecified) 8.32%
COc1ccc(Cl)cc1NC(=O)c1cc(-c2ccc3c(c2)OCO3)on1 0.253%
COc1ccc(NC(=O)c2nc(S(C)(=O)=O)ncc2N(Cc2ccc(C)cc2)Cc2ccco2)cc1Cl -0.55%
COc1cccc(CNC(=O)c2cc(-c3ccc(Cl)s3)nc3ccccc23)c1 3.29%
CCCCc1cc(=O)oc2cc(C)c3c(C(C)(C)C)coc3c12 1.06%
COc1ccc(C)cc1NC(=O)N1CCN(S(=O)(=O)c2ccc3c(ccn3C)c2)CC1 -14%
Cc1ncc(CO)c2c1Oc1nc(-c3ccc(Cl)cc3)nc(SCC(=O)N3CCCCC3)c1C2 -2.42%
Cc1cccc(CSc2nc3c(sc4ccccc43)c(=O)n2CCC(=O)NC(C)C)c1 -9.77%
COc1ccc(C(CC(=O)O)NC(=O)c2cc3ccccc3oc2=O)cc1OC (stereo unspecified) 14.5%
Oc1ccc(Nc2nc3ccccc3n3cnnc23)cc1 1.89%
Cc1cccc(Cn2c(=O)n(Cc3ccc(C(=O)NC4CCN(Cc5ccccc5)CC4)cc3)c(=O)c3ccccc32)c1 -10.2%
CCOC(=O)c1cnc2c(C)cc(C)cc2c1Nc1cccc(C(=O)O)c1 10.9%
CCOCCCNC(=O)CN1C(=O)COc2ccc(S(=O)(=O)N3CCCCCC3)cc21 -23.4%
O=C(Nc1cccc2cccnc12)c1ccccc1[N+](=O)[O-] 3.32%
CC(=O)c1ccc(N2CCN(c3ccc(NC(=O)c4cccs4)cc3C(=O)O)CC2)cc1 0.816%
CC(C(=O)NCc1ccccc1Cl)n1ccc2cc(S(=O)(=O)N3CCCCC3)ccc21 (stereo unspecified) -6.2%
Cc1ccc(NC(=O)CSc2nnc3nc(C)cc(C)n23)cc1 -0.848%
CCc1cccc(C)c1NC(=O)CCCn1c(=O)c2cccn2c2cccnc21 -0.365%
CCOC(=O)c1ccccc1NC(=O)NC(C)c1c(-n2cccc2)sc(C)c1C (stereo unspecified) -5.92%
Cc1ccc(C)c(NC(=O)CN2C(=O)c3cccc4cccc2c34)c1 -9.55%
O=c1c2ccccc2n2c(-c3ccccc3O)nnc2n1Cc1ccc(F)cc1 0.526%
Cc1cccc(Cn2ccn(Cc3ccc(Cl)cc3)c(=O)c2=O)c1 -13%
CCN(CC)C(=O)c1sc(NC(=O)c2nc3ncccn3n2)c(C(=O)OC)c1C -15.4%
O=C(CSc1nc(-c2cccc(Cl)c2)nc2cc(=O)[nH]n12)Nc1ccccc1 -2.57%
CCCCCC(=O)N1c2ccccc2C(C)(c2ccccc2)CC1(C)C (stereo unspecified) -0.158%
O=C(c1ccccc1Br)N(Cc1ccco1)C1CCS(=O)(=O)C1 (stereo unspecified) 0.277%
O=C(c1ccc2c(c1)N(Cc1ccccc1)C(=O)c1ccccc1S2(=O)=O)N1CCCC1 -4.97%
CCC(Sc1nc2c(sc3ccccc32)c(=O)n1CCc1ccccc1)C(=O)N(CC)CC (stereo unspecified) 3.09%
COc1cccc(CCNC(=O)Cn2c(-c3cccs3)cc3ccccc32)c1 -0.904%
Cc1ccc(C)c(N2CCN(C(=O)Nc3cn(CC(C)C)c(=O)c4ccccc34)CC2)c1 1.21%
COc1ccc(NC(=O)CN2C(=O)C(c3ccc(C(C)(C)C)cc3)=NC2(C)C)cc1Cl -1.27%
Cc1cccc(Cc2cnc(NC(=O)C3Cc4ccc(C)cc4C(=O)O3)s2)c1 (stereo unspecified) -1.71%
COc1ccccc1N1CCN(C(=O)C2CCN(S(=O)(=O)c3c(C)noc3/C=C/c3ccc(C)cc3)CC2)CC1 -0.175%
